Measurements published in PubChem BioAssay AID2147 (National Center for Advancing Translational Sciences (NCATS), 2009).
The whole screen tested about 230,000 compounds, of which about 3,600 (1.6%) were called active. This list was built around the results that the source calls inconclusive (neither active nor inactive); the mix of calls is not that of the screen. Calls come from the whole dose curve; as a rule, active = well fitted inhibition curve with a large enough effect (not every such curve was filed as active); inconclusive = small, poorly fitted or top-dose-only effect, or another doubt; inactive = no such curve, though single readings can be large or run the other way. A potency beside an inconclusive call is a rough fit, not a confirmed value.

biological target: Lysine-specific demethylase 4E (Homo sapiens) (UniProt B2RXH2); assay: qHTS Assay for Inhibitors of Human Jumonji Domain Containing 2E (JMJD2E); settings: JMJD2E catalytic domain, FDH-coupled NADH fluorescence (FDH is formaldehyde dehydrogenase); series mostly up to 57.1 µM
Note: nearly all actives have a fitted effect of over 50% in size.
Potency is the fitted concentration of half-maximal effect; tags give direction and shape of the fitted curve.

Sequence of UniProt B2RXH2 (B2RXH2 whole entry, looked up, the tested form may be a part): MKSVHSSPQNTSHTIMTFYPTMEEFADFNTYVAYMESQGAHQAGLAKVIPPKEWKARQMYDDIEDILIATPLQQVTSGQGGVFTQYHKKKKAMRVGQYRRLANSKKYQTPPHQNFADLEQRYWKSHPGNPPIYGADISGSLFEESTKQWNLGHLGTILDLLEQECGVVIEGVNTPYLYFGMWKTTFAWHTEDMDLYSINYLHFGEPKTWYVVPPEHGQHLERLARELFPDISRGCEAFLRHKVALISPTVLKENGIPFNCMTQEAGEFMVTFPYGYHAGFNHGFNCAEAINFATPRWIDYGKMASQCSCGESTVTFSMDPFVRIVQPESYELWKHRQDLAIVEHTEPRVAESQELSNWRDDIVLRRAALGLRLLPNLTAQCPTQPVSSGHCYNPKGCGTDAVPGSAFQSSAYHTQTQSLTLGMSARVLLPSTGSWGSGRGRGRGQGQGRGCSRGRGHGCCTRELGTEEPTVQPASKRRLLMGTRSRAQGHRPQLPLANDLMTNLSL

| Compound | Potency |
| --- | --- |
| CN1C(=O)N(C)C(=O)C2(Cc3cc(N)ccc3N3CCN(c4ccccc4F)CC32)C1=O (stereo not drawn) | inconclusive: 25.1 µM [inhibitor, single point] |
| Cc1ccc(C2N(c3cc(C)on3)C(=O)C3CCCN32)cc1 (stereo not drawn) | inactive |
| O=P(O)(O)C(Cl)(Cl)P(=O)(O)O | inconclusive: 20 µM [inhibitor, single point] |
| COc1ccc(N2C(=O)NC(=O)/C(=C/c3ccc4c(c3)Cc3ccccc3-4)C2=O)cc1 | inconclusive: 28.2 µM [inhibitor, partial curve] |
| O=[N+]([O-])c1ccc(N2CCNCC2)cc1N1CCCCC1 | inactive |
| CC12CCCCC1N(O)CN2O (stereo not drawn) | inactive |
| CC/C(=N\NC(=O)c1ccccc1)c1c(O)n(Cc2ccccc2)c(=O)[nH]c1=O | inconclusive: 35.5 µM [inhibitor, single point] |
| CC(=O)Nc1ccc(N(C(=O)Cn2nnc3ccccc32)C(C(=O)NC2CCCC2)c2ccc(O)c(O)c2)cc1 (stereo not drawn) | active: 7.94 µM |
| CCCCn1c(N)c(N(CCOC)C(=O)CN2CC=C(c3ccccc3)CC2)c(=O)[nH]c1=O | inconclusive: 39.8 µM [inhibitor, single point] |
| CCN1C[C@]2(C)CC[C@H](OC)[C@@]34[C@@H]2[C@H](OC(C)=O)[C@]2(OCO[C@@]25C[C@@H](OC)[C@@H]2C[C@@]3(O)[C@H]5[C@@H]2OC)[C@H]14 | inactive |
| CC(C)(C)c1nc(N2CCN(C(=O)c3ccco3)CC2)c2nnn(Cc3ccccc3Cl)c2n1 | inconclusive: 39.8 µM [inhibitor, single point] |
| O=C1NC(=S)N(c2ccccc2F)C(=O)/C1=C\c1cccs1 | inactive |
| Oc1cc2c(cc1O)[C@H]1c3ccccc3CNC1CC2 (stereo partly drawn) | active: 20 µM |
| COc1ccc2c(c1)NP(=S)(Oc1ccccc1)N2 (stereo not drawn) | inconclusive: 14.1 µM [inhibitor, partial curve] |
| CC(=O)O.CC(=O)O.[Cd] | active: 20 µM |
| CCC(C)OC(=O)c1c(N)n(Cc2cccs2)c2nc3ccccc3nc12 (stereo not drawn) | inconclusive: 31.6 µM [inhibitor, partial curve] |
| O=C(O)c1ccc(N=Cc2c(O)n(Cc3ccc(F)cc3)c(=O)[nH]c2=O)cc1 | inactive |
| Cc1cccc(N2C(=O)NC(=O)/C(=C/c3ccc(N4CCOCC4)cc3)C2=O)c1 | inconclusive: 39.8 µM [inhibitor, single point] |
| N=c1c2c(n(Cc3ccc(Cl)cc3Cl)c3c1CCC3)CCCC2 | inactive |
| CCc1nnc(NC(=O)CSc2ccc(-c3ccco3)nn2)s1 | inconclusive: 39.8 µM [inhibitor, single point] |
| O=c1[nH]c(O)c(Cc2ccc3c(c2)OCO3)c(=O)[nH]1 | inactive |
| O=Cc1cn(Cc2ccccc2F)c2ccccc12 | inactive |
| Cc1cc(/C=C2\C(=O)NC(=O)N(c3cccc(F)c3)C2=O)c(C)n1-c1cc(C(=O)O)cc(C(=O)O)c1 | inconclusive: 28.2 µM [inhibitor, single point] |

| Compound | Potency |
| --- | --- |
| Cc1ccc2c(C)cc[n+](CCCS(=O)(=O)[O-])c2c1 | inconclusive: 28.2 µM [inhibitor, partial curve] |
| O=c1[nH]c(=S)[nH]c(O)c1N=Nc1ccc(S(=O)(=O)N2CCOCC2)cc1 | inactive |
| COC(=O)CCc1nc2c(C#N)c(-c3ccc(Cl)cc3)ccn2n1 | inconclusive: 28.2 µM [inhibitor, single point] |
| CCOC(=O)c1c(N)n(CCN2CCCCC2)c2nc3ccccc3nc12 | inconclusive: 28.2 µM [inhibitor, partial curve] |
| C[C@]12CC[C@@H]3c4cc(O)c(O)cc4CC[C@H]3[C@@H]1CC[C@@H]2O | inconclusive: 31.6 µM [inhibitor, single point] |
| COc1ccc(C2CC(c3c(O)n(CCc4ccccc4)c(=O)[nH]c3=O)=NN2)cc1OC (stereo not drawn) | inconclusive: 39.8 µM [inhibitor, single point] |
| CN1C[C@@H](CS(=O)(=O)N(C)C)C[C@@H]2c3cccc4c3c(cn4C)C[C@H]21 | inconclusive: 39.8 µM [inhibitor, single point] |
| CC(C)N(CC[C@@](C(N)=O)(c1ccccc1)c1ccccn1)C(C)C | inactive |
| O=P1(Nc2cccnc2)COc2ccccc2OC1 | inactive |
| COc1ccc(C(c2ccc(OC)cc2)C(Cl)(Cl)Cl)cc1 | inactive |
| N#CC1=C(N)Oc2c(c(=O)oc3ccccc23)C1c1ccccc1OC(=O)c1cccs1 (stereo not drawn) | inconclusive: 39.8 µM [inhibitor, single point] |
| Nc1ccc2c(c1)oc1ccccc12 | inconclusive: 31.6 µM [inhibitor, partial curve] |
| CNC(=O)[C@@H]1C[C@H]1[C@@H](NP(=O)(c1ccccc1)c1ccccc1)c1ccccc1 | inactive |
| Cc1ccc(-n2c(O)c(C=Nc3ccc(Br)cn3)c(=O)[nH]c2=O)cc1 | inconclusive: 35.5 µM [inhibitor, single point] |
| O=P(c1ccccc1)(c1ccccc1)N1CC2(CC2)CC(O)(c2ccccc2)C1 (stereo not drawn) | inactive |
| COc1ccc(/C=N/N=C(/N)N[N+](=O)[O-])c(OC)c1 | inconclusive: 35.5 µM [inhibitor, single point] |
| CCOC(=O)c1c(C)n(Cc2ccccc2)c2ccc(OCC(O)Cn3nc(C)nc3C)cc12 (stereo not drawn) | inconclusive: 28.2 µM [inhibitor, single point] |
| CCC1CN2CCC1CC2C(O)c1ccnc2ccccc12 (stereo not drawn) | inactive |
| O=c1[nH]c(O)c(/C=C2/C=CC(c3cc(Cl)ccc3Cl)=N2)c(=O)[nH]1 | inactive |
| Cc1cccc(-n2c(O)c(/C=N/Nc3nc4c(c(=O)n(C)c(=O)n4C)n3C)c(=O)[nH]c2=S)c1 | inconclusive: 25.1 µM [inhibitor, single point] |
| O=C(COc1ccc(Br)cc1)N1CCN(Cc2c[nH]c3ccccc23)CC1 | inconclusive: 28.2 µM [inhibitor, single point] |
| CCOP(=S)(OCC)Oc1ccc2c(C)c(Cl)c(=O)oc2c1 | inconclusive: 25.1 µM [inhibitor, single point] |
| CN(C)c1ccc(/C=C/C=C2/C(=O)NC(=O)N(c3ccccc3)C2=O)cc1 | inactive |

| Compound | Potency |
| --- | --- |
| Cn1c2c(c3ccccc31)CCNCC2 | inconclusive: 35.5 µM [inhibitor, single point] |
| CCC(=NCCN1CCOCC1)c1c(O)n(C2CCCCC2)c(=O)[nH]c1=O | inconclusive: 39.8 µM [inhibitor, single point] |
| C[n+]1cccc(C(=O)NCC2CCCO2)c1 (stereo not drawn) | inconclusive: 35.5 µM [inhibitor, single point] |
| Cc1nn(-c2ccccc2)c(Cl)c1C1C(C#N)=C(N)Oc2c1c(=O)oc1ccccc21 (stereo not drawn) | inconclusive: 39.8 µM [inhibitor, single point] |
| CC1CCCCN1CC(=O)c1ccc2cc[nH]c2c1 (stereo not drawn) | inconclusive: 22.4 µM [inhibitor, partial curve] |
| CC(C)CCn1c(N)c(C(=O)OCC2CCCO2)c2nc3ccccc3nc21 (stereo not drawn) | inconclusive: 31.6 µM [inhibitor, partial curve] |
| CC(C)[C@]1(NC(=O)[C@@H]2C=C3c4cccc5[nH]cc(c45)C[C@H]3N(C)C2)O[C@@]2(O)C3CCCN3C(=O)[C@H](Cc3ccccc3)N2C1=O (stereo partly drawn) | inconclusive: 28.2 µM [inhibitor, partial curve] |
| Cc1ccccc1-n1c(O)c(/C=N/NC(=O)c2ccncc2)c(=O)[nH]c1=O | inconclusive: 20 µM [inhibitor, partial curve] |
| CCC1/C=C/C=CCC(C)C(O)[C@@](C)(O)C(=O)C(C)C(O)C(C)C(=O)C(C)C(O)C(C)C=CC(=O)O[C@H]2C(C)C(CC1)O[C@]1(CCC(C)C(CC(C)O)O1)C2C (stereo partly drawn) | inactive |
| CCN1CCN(S(=O)(=O)c2ccc(Cl)nc2)CC1 | inactive |
| Cc1cccc2c3c(ccc12)C1=C(C(=O)C3=O)C(C)CO1 (stereo not drawn) | inconclusive: 35.5 µM [inhibitor, single point] |
| O=c1c2ccccc2nc(/C=C/c2ccc3c(c2)OCO3)n1-c1cccc(O)c1 | inconclusive: 35.5 µM [inhibitor, single point] |
| COC(=O)c1c(N)n(Cc2ccc(OC)cc2)c2nc3ccccc3nc12 | inconclusive: 31.6 µM [inhibitor, partial curve] |
| CC(C)(O)C1C2OC(=O)C1[C@]1(O)C[C@H]3O[C@]34C(=O)O[C@H]2[C@]14C (stereo partly drawn) (tested in a mixture with another compound) | inactive |
| CCCCC/C=C\C/C=C\C/C=C\C/C=C\CCCC(=O)NCCCC(=O)O | inactive |
| CCOc1cc(-c2ccc(N)c(OCC)c2)ccc1N | inconclusive: 17.8 µM [inhibitor, partial curve] |
| COc1ccccc1OCCCn1cc(C(=O)c2ccco2)c2ccccc21 | inconclusive: 35.5 µM [inhibitor, single point] |
| O=c1[nH]c(=O)n(-c2cccc3ccccc23)c(O)c1/C=N/N1CCCCC1c1cccnc1 (stereo not drawn) | inconclusive: 35.5 µM [inhibitor, single point] |
| CN1C(=O)/C(=C\N2CCc3ccccc32)C(=O)NC1=S | inconclusive: 35.5 µM [inhibitor, single point] |
| CC(=O)OCC1=C(C(=O)[O-])N2C(=O)[C@@H](NC(=O)CCC[C@@H](N)C(=O)[O-])[C@H]2SC1.[Zn+2] | active: 28.2 µM |
| CN1CCN(c2ccc(N)cc2)CC1 | inconclusive: 17.8 µM [inhibitor, single point] |
| CN1CCC2=C[C@H](O)[C@@H]3OC(=O)c4cc5c(cc4[C@H]3[C@H]21)OCO5 | inconclusive: 12.6 µM [inhibitor, partial curve] |
